In publication PMC4336329 (PLoS ONE, 2015):
The whole screen tested about 310,000 compounds, of which about 14,000 (4.5%) showed an effect of 50% or more. The effect is printed as a negative number. Some of the results follow.

Target: human ether-à-go-go-related gene (hERG) potassium channel (human, UniProt Q12809)
Assay: primary screen, population patch clamp on CHO cells stably expressing hERG
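Also: peak tail current of the secondary pulse compared with the same well before compound.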

human ether-à-go-go-related gene (hERG) potassium channel, sequence (Q12809 whole entry, looked up): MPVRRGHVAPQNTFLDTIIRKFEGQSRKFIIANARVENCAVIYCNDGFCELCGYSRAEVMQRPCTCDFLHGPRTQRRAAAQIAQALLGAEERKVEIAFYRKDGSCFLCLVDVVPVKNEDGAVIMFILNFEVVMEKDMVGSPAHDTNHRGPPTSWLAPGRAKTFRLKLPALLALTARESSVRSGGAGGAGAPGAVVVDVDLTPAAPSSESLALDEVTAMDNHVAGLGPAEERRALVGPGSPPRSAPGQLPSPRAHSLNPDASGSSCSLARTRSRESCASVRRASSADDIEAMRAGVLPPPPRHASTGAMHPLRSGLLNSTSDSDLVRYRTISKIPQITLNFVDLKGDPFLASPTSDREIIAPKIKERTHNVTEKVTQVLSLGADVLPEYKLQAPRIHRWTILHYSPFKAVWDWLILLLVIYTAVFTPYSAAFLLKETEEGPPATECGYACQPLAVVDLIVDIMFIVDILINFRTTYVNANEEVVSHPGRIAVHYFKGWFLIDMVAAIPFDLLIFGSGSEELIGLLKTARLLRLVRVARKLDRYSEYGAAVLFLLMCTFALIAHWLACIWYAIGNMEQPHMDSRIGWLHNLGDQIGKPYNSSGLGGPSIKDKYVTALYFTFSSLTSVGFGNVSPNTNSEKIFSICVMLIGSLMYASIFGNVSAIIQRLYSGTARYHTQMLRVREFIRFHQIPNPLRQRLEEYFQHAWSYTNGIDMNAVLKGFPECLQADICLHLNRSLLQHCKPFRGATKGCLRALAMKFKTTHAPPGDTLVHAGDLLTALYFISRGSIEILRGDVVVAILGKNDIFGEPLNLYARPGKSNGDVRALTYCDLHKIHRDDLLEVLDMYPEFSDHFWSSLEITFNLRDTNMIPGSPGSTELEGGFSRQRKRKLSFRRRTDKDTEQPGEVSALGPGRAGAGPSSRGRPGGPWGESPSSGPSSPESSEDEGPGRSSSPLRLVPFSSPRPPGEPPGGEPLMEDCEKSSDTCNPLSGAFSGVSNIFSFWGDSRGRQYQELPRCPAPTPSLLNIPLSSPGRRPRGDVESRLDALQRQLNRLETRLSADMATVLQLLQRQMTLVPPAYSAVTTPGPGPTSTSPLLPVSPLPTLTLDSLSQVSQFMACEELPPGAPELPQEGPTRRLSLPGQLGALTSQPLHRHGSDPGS

Row | Compound | hERG current change (%, negative = inhibition) at 10uM [%]
1 | O=C(Nc1ccc(-c2nnn(CC(=O)N3CCN(C(=O)c4ccco4)CC3)n2)cc1)c1ccccc1F | -53.2
2 | CC(C)(C)CNC(CO)C12CC3CC(CC(C3)C1)C2.Cl (centres unmarked) | -4.3
3 | Cc1cccn2c(CN[C@H]3CCCCNC3=O)c(C(=O)N3CCOCC3)nc12 | 19.9
4 | CCOc1ccc(CCNC(=O)c2cccc(C#N)c2)cc1OCC | -6.55
5 | CC(=O)c1cccc(NC(=O)/C(=C/c2ccncc2)NC(=O)c2ccccc2)c1 | 10.9
6 | COc1ccccc1CCN=C(N)NS(=O)(=O)c1ccc(C)cc1 | -7.61
7 | O=c1c(Cc2c(F)cccc2Cl)c(O)ccn1CCc1ccccn1 | 9.97
8 | COc1ccc2c(c1OC)C(=O)N1C2SC(C)(C)[C@H]1C(=O)NC1CCCC1 (some centres unmarked) | 8.48
9 | CC1(C)CC(=O)C(C(C2=C(O)CC(C)(C)CC2=O)c2cccs2)C(=O)C1 (centres unmarked) | -13.9
10 | Cl.O=S(=O)(c1ccc2nc(Cc3ccccc3)[nH]c2c1)N1CCOCC1 | -6.54
11 | O=C(/C=C/c1ccc2c(c1)OCO2)c1ccccn1 | -3.32
12 | O=C(O)CCC(=O)N1CCc2c([nH]c3ccccc23)C1C(F)(F)F (centres unmarked) | 15.7
13 | Cc1ccc(NC(=O)CCSc2nnc3ccccn23)cc1 | 2.6
14 | Cc1ccc(S(=O)(=O)NCc2ccc(C(=O)NC3CCC(O)CC3)cc2)cc1C (centres unmarked) | 1.45
15 | CCCNC(=O)c1onc(CSc2ccc(Cl)cc2)c1C(=O)NC(C)C | -31.2
16 | CCOc1ccc(N2C(=O)NC(=O)/C(=C\c3ccc(N4CCCCC4)o3)C2=O)cc1 | 1.36
17 | COc1ccc(-c2cc(-c3ccccc3)nc(=O)[nH]2)cc1 | -5.62
18 | Cc1cccc(N2C(=O)CC(Sc3nc(-c4ccccc4)c4cc(Cl)ccc4n3)C2=O)c1 (centres unmarked) | 4.73
19 | COc1ccc(C(=O)N(C)Cc2ccccc2F)cc1S(=O)(=O)N1CCCC1 | -9.86
20 | COc1ccc(COC(=O)Oc2ccc(CNC(C)=O)cc2OC)c([N+](=O)[O-])c1 | -8.37
21 | CC1(C(=O)Nc2c(F)c(F)c(F)c(F)c2F)CC1(Br)Br (centres unmarked) | 2.67
22 | Cc1nn(C)c(Cl)c1C(=O)NCC(=O)O | 7.54

Row | Compound | hERG current change (%, negative = inhibition) at 10uM [%]
23 | CCOc1ccccc1NC(=O)CN(c1cc(C)cc(C)c1)S(=O)(=O)c1c(C)noc1C | 10.6
24 | O=C(CCC1CCCN(Cc2cccc(Cl)c2)C1)NCc1ccccc1F (centres unmarked) | -50.9
25 | Cc1ccc(Cn2nnc3c(=O)[nH]c(C4CCCN(S(=O)(=O)c5ccccc5F)C4)nc32)cc1 (centres unmarked) | 12.2
26 | Cc1ccc2cc(CN(CC3CCCO3)S(=O)(=O)c3cccc4nsnc34)c(=O)[nH]c2c1 (centres unmarked) | -46.9
27 | COc1ccc(NC(=O)CCCN2C(=O)C(c3ccccc3)Oc3cccnc32)cc1 (centres unmarked) | 5.82
28 | CCc1c(C)nc(N)nc1OCC(F)(F)C(F)F | 1.23
29 | COc1cc(C(=O)Nc2ccc(NC(C)=O)cc2)ccc1OCc1ccccc1 | 24.5
30 | O=C(COC(=O)C12CC3CC(CC(C3)C1)C2)Nc1ccc(OC(F)F)cc1 | -17.3
31 | CCC(=O)N1CCc2cc(Br)cc(S(=O)(=O)N3CCCCCC3)c21 | -28.6
32 | O=C(c1ccccc1)c1ccc(OCC(O)CN2CCN(S(=O)(=O)N3CCCCC3)CC2)cc1 (centres unmarked) | -73.5
33 | COc1cc2c(cc1OC)CN(CC(=O)Nc1ccc3c(c1)OCO3)CC2 | 3.77
34 | O=C(Nc1cccc(C(=O)N2CCOCC2)c1)c1ccc([N+](=O)[O-])cc1 | -15
35 | COC1=CC2(O)CCCC2=CC1=O (centres unmarked) | 9.57
36 | O=C(NCCc1ccccc1)C1CCCN1C(=O)Nc1cccc(Cl)c1 (centres unmarked) | -15.2
37 | COc1ccccc1CN1C(=O)C2CC=CCC2C1=O (centres unmarked) | -14.9
38 | O=S(=O)(N/N=C1/CC(c2ccccc2)Oc2ccccc21)c1ccc(Br)cc1 (centres unmarked) | -2.19
39 | O=C(C1CC1)N1CCC(c2nc(-c3ccc(S(=O)(=O)N4CCCC4)cc3)no2)CC1 | -13
40 | COc1ccc(-c2nn(-c3ccccc3)cc2C(=O)N2CCN(S(=O)(=O)c3cccc(F)c3)CC2)cc1 | -0.945
41 | Clc1ccc(-c2cc(-c3nnc4n3CCCCC4)c3ccccc3n2)cc1 | -42.1
42 | CCOC(=O)N1CCC(=NNC(=O)c2cc3ccccc3cc2O)CC1 | -2.89
43 | O=C(CSc1nnc(-c2ccc(O)cc2)n1-c1ccccc1)CC(=O)Nc1ccccc1 | -5.87
44 | CCOC(=O)c1c(S(=O)(=O)N2CCN(c3ccc(F)cc3)CC2)c(C)n(C)c1C | -4.6
